This is one part of the list.
T1: UNK ZnF1-6 (called full-length) (human, UniProt Q9C0B0 30-357)
T1 sequence: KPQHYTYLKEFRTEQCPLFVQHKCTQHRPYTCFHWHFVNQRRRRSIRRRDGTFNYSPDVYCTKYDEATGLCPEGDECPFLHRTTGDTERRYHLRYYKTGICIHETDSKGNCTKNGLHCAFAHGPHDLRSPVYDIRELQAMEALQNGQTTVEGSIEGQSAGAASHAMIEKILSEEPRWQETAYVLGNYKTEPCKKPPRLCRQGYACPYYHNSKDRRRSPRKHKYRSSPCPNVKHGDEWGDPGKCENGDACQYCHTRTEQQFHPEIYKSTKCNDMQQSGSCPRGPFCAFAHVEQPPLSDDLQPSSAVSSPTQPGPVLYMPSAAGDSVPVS

B1: chr11:57233576:57235861:-|three_prime_utr|ENSG00000134817|control|control|control (ssRNA)
RNA: GGGAGUUCUACAGUCCGACGAUCAGAGAAGCCUGGCGCCCUCGGCCCUCCCCGGCCUUUGCCCUUGCUUUCUGAAAAUCAGGUAGUGUGGCUACUCCUUGUCCUAUGCACAUCCUUUAACUGUCCCCUGAUUCUGCCCCGCCCCAACAGAGGAUUGAGCAUCA
B2: ENSG00000198589:be:win_3601|CDS|ENSG00000198589|bound_else_gene|NA|bound_elsewhere_windowed (ssRNA)
RNA: GGGAGUUCUACAGUCCGACGAUCGUAGAAUCAGACCUUGGUCAGAUGCUGGAGGAAGGGAAGAAAGCAACUAACCUCACUAGAGAAACCAAAUUAAUUAAUGAUUGUCAUGGUAGUGUCUCUGAGGCUUCUUCUGAGCAAAAGCAACAGAGGAUUGAGCAUCA
B3: chr15:63071210:63071313:+|3pUTR|ENSG00000140416|unk|total|mutant (ssRNA)
RNA: GGGAGUUCUACAGUCCGACGAUCCCUUAAAUGCAAUUUAUUUACUUUUACCACUGUCACAGAAACAUCCACAAGAUACCAGCCCGGUCAGGGGGUGGGGAAAACACAUACAAAAAGGCAAGCCCAUGUCAGGGCGAUCCUGGUCAACAGAGGAUUGAGCAUCA
B4: ENSG00000124766:be:win_3251|3pUTR|ENSG00000124766|bound_else_gene|NA|bound_elsewhere_windowed (ssRNA)
RNA: GGGAGUUCUACAGUCCGACGAUCUCUCACACAGUUUAAAAAAUCAGCCCCUAAUUUCUCCAUGUUUACACUUCAAUCUGCAGGCUUCUUAAAGUGACAGUAUCCCUUAACCUGCCACCAGUGUCCACCCUCCGGCCCCCGUCUCAACAGAGGAUUGAGCAUCA
B5: chr15:80137503:80137604:+|CDS|ENSG00000086666|unk|total|mutant (ssRNA)
RNA: GGGAGUUCUACAGUCCGACGAUCCAAUUGCUCUUACAAUUACAAAGCCGAUGCUGCUGAGAAAAUCAGAAAAGAAAAUCCAGCCGUUGUUGGUGAAAAGAUCCAAAAGAUUUGAACUCCUGCUGGAAUACAAAAUUCUUGAGCCAACAGAGGAUUGAGCAUCA
B6: chr7:82953248:82953350:-|CDS|ENSG00000186472|unk|total|mutant (ssRNA)
RNA: GGGAGUUCUACAGUCCGACGAUCAACAGAUAUACACCCCAAACCAACAGGCCUAUCUUUAACUUCAAGUAUGACCUUAAAUUCCGUGACUUCAGCAGAUUAUAAAUUGCCUUCCCCUACCUCCCCACUUUCCCCACACUCCAACAACAGAGGAUUGAGCAUCA
B7: chr12:51809400:51809501:+|3pUTR|ENSG00000196876|unk|FALSE|unique (ssRNA)
RNA: GGGAGUUCUACAGUCCGACGAUCCUGCCUUGCAGUAGAAGCACUUUGAAGGUAAUUUCACAGUCCACCAGACUAGUUUUGCAUAGAACAAACCACAGUAAGUCGGCAAGCAGAGCUUUCUAUCUUGUUGGACCACUAGAAACUCAACAGAGGAUUGAGCAUCA
B8: chr2:197486603:197486717:-|3pUTR|ENSG00000144381|unk|FALSE|unique (ssRNA)
RNA: GGGAGUUCUACAGUCCGACGAUCCCACCAGAUGAGAAGUUAAGCAGCCUUUCUGUGGAGAGUGAGAAUAAUUGUGUACAAAGUAGAGAAGUAUCCAAUUAUGUGACAACCUUUGUGUAAUAAAAAUUUGUUUAAAGUUAAUAACAACAGAGGAUUGAGCAUCA
B9: chrX:21994482:21994713:+|3pUTR|ENSG00000102172|msi1|total|mutant (ssRNA)
RNA: GGGAGUUCUACAGUCCGACGAUCCAGCUGAAGGAUGGUCCGACAGCACAGCGAAGACUGCUAAAUGCACUGACCCCCCCCAUCCGAAUGUGAUUUUUGUUCCUUUUUAUUUCUCUGUGGGCUUUUGUUUUUGUUUUUGUUUUGCAACAGAGGAUUGAGCAUCA
B10: ENSG00000107863:be:win_5901|3pUTR|ENSG00000107863|bound_else_gene|NA|bound_elsewhere_windowed (ssRNA)
RNA: GGGAGUUCUACAGUCCGACGAUCAAGUAAAAAAACUACUGUUACACGUUCCAGUAACUCUGUCAAUAUUUUCUUGUAUCAGAAUUGUUAUUAUGCAGCCUUCAUUUGGGCUGGUUUCAUCAUUUUGCACUGUGAAAUAGCUUUCAACAGAGGAUUGAGCAUCA
B11: chr22:29286963:29287064:+|CDS|ENSG00000182944|unk|FALSE|unique (ssRNA)
RNA: GGGAGUUCUACAGUCCGACGAUCCAGAGCAGUUACUCUCAGCAGAACACCUAUGGGCAACCGAGCAGCUAUGGACAGCAGAGUAGCUAUGGUCAACAAAGCAGCUAUGGGCAGCAGCCUCCCACUAGUUACCCACCCCAAACUCAACAGAGGAUUGAGCAUCA
B12: ENSG00000070961:be:win_5001|3pUTR|ENSG00000070961|bound_else_gene|NA|bound_elsewhere_windowed (ssRNA)
RNA: GGGAGUUCUACAGUCCGACGAUCGAAUCAGAUUAAGAAAAUUAACACAAUUUUACCAUUUGACAUACUCUUCAUUGAAUUUAGUUUGUCUAAAAUAGUCUCACAGGUAAAAAACAUAACAACAAUGACCACCAUUGUCUUUGACAACAGAGGAUUGAGCAUCA
B13: chr2:159230815:159230918:+|CDS|ENSG00000115183|unk|FALSE|unique (ssRNA)
RNA: GGGAGUUCUACAGUCCGACGAUCAACCUGUUCUGUUUCUACCCUGAGUGCAAGUGUCCACAAUGGGGCACAAGUGAAGGAGCUAGAAGAAAGCAAGUGCCAAAUUCCAGUCCACUCUCAAGAGAACAGGAUAACUAAGACUGUCAACAGAGGAUUGAGCAUCA
B14: chr8:17753977:17754079:-|CDS|ENSG00000129422|unk|FALSE|bound_elsewhere (ssRNA)
RNA: GGGAGUUCUACAGUCCGACGAUCAAAAAAGCAGAAAUUCUAAUUAACAAGACACAUAAGCAGCAGUUUAAUAAACUCAUUACUAGCCAGGCUGUGCAUGUUACAACUCAUUCUAAAAAUGCUUCACACAGGGUUCCAAGAACACAACAGAGGAUUGAGCAUCA
B15: ENSG00000070961:be:win_2901|CDS|ENSG00000070961|bound_else_gene|NA|bound_elsewhere_windowed (ssRNA)
RNA: GGGAGUUCUACAGUCCGACGAUCUCCUUCAGAACAUUAUACUAUUGUUUUUAAUACCUUUGUGCUGAUGCAACUUUUCAACGAAAUAAAUGCCCGGAAAAUUCAUGGUGAAAGAAAUGUAUUCGAAGGAAUCUUUAACAAUGCCAACAGAGGAUUGAGCAUCA
B16: chr4:38700566:38700667:+|3pUTR|ENSG00000109787|unk|FALSE|unique (ssRNA)
RNA: GGGAGUUCUACAGUCCGACGAUCUACAAAGCCAUCUUUACAUGCAUUAAACGAGGGCUACAACAAUAUUGUUUUACAAAUACUAGCACUUUUUUUUCUGUUAUGUACUUAGUGUUAGAGGGUCAAAAUAAUCUUUCUGCUUAGCAACAGAGGAUUGAGCAUCA
B17: chr1:246839951:246840052:-|3pUTR|ENSG00000153207|msi1|total|mutant (ssRNA)
RNA: GGGAGUUCUACAGUCCGACGAUCAAAUGUAAAAUAAAUCUGUUUAUGGAUAUUGAGUGCAUCUUGUAUGUGCCUAAUAUUGACCGGAUGAGAUGUCUGAACAAAUUUUUAUAAUAUUGCUGUGAAGGAGCUUGCUAUUGAACCCAACAGAGGAUUGAGCAUCA
B18: chr3:48658964:48659065:-|CDS|ENSG00000008300|msi1|FALSE|unique (ssRNA)
RNA: GGGAGUUCUACAGUCCGACGAUCCGAUGUCUCCGACCACCUCUUCUACUCCUUUGAGCGUGGCAAUGAGCUGCAGCUGCUGGUAGUCAACCAGACCAGUGGGGAGCUGCGACUCAGCCGAAAGCUAGACAAUAACCGCCCACUCAACAGAGGAUUGAGCAUCA
B19: chrX:71300841:71300885:+|3pUTR|ENSG00000147140|msi1_unk|total|mutant (ssRNA)
RNA: GGGAGUUCUACAGUCCGACGAUCCCCCAUAUAUUACCCCUUCAUGUCCUAAAGAAGACAUUUUCUCUCCGAGAUUUUCAUUUCCGUGUAUCUUUAAAAAAAAAUCUUGUGUUAACUUGCCUCCAUCUUUUUCUUGGGUGAGGACAACAGAGGAUUGAGCAUCA
B20: chr7:92086252:92086353:+|CDS|ENSG00000127914|msi1|total|mutant (ssRNA)
RNA: GGGAGUUCUACAGUCCGACGAUCUCAUGAGAGCUUCUCAGACUGGCGAGGUGAACUACUGCUUGCCCUUCAACAAGUUUUCUCCGAAGAGCGCCGUGUUUUACCCGCAGCAUUUCGGACGGAGCUGACAGCUCCCGGUACUACCAACAGAGGAUUGAGCAUCA
B21: chr3:15667380:15667481:-|3pUTR|ENSG00000206560|msi1|FALSE|bound_elsewhere (ssRNA)
RNA: GGGAGUUCUACAGUCCGACGAUCUAUACAUAAAAGAUGACAUCUGAAAUAUCUGAUGUGUAUUAUAAUACCAGCUUCUGCUCUAGAACUACUUUGGGUGAAAUGGUGGUAAUAGCAAAUGACCUCCUUUAACAAGACACUCAUCAACAGAGGAUUGAGCAUCA
B22: chr1:16124349:16124452:-|3pUTR|ENSG00000142627|msi1|total|mutant (ssRNA)
RNA: GGGAGUUCUACAGUCCGACGAUCUUUGUUUUGUUGGACAUUUUUUUCGAAUCUUAAUUUAUUAUUUUUUUUAUAUUUAUUGUCCGAAAAUGACUUAUUUCUGCUCUGGAAUAAAGUUGCAGAUGAUUCAAACCGAUCUUGGCUCAACAGAGGAUUGAGCAUCA

molecular target: T1, UNK ZnF1-6 (called full-length); test: nsRBNS (natural sequence RNA bind-n-seq); RBNS binding buffer (assumed for nsRBNS): 25 mM Tris pH 7.5, 150 mM KCl, 3 mM MgCl2, 0.01% Triton X-100, 500 ug/ml BSA, 20 U/ml SUPERase-In, 4 C; UNK is unkempt and MSI1 is Musashi-1; names of the RNAs are library labels; protein concentration not given here; high values mean tight binding

| Binder | binding signal |
| --- | --- |
| B1 | 1.03 enrichment R |
| B2 | 1.51 enrichment R |
| B3 | 1.67 enrichment R |
| B4 | 1.03 enrichment R |
| B5 | 0.334 enrichment R |
| B6 | 0.855 enrichment R |
| B7 | 1.04 enrichment R |
| B8 | 1.01 enrichment R |
| B9 | 0.898 enrichment R |
| B10 | 0.386 enrichment R |
| B11 | 1.59 enrichment R |
| B12 | 0.648 enrichment R |
| B13 | 0.586 enrichment R |
| B14 | 0.613 enrichment R |
| B15 | 0.356 enrichment R |
| B16 | 1.1 enrichment R |
| B17 | 0.415 enrichment R |
| B18 | 0.652 enrichment R |
| B19 | 0.727 enrichment R |
| B20 | 0.462 enrichment R |
| B21 | 0.4 enrichment R |
| B22 | 1.52 enrichment R |

From paper PMC12136788
